Source: the supplement of paper PMC4967469
A lower IC50 marks a more sensitive line; a fit beyond the top or the lowest dose is shown as a bound at that dose. AUC, from the same fit, is the share of area under the viability curve across the 256-fold dose range: 1 means no effect, lower means more sensitive.

Compound: CC[C@H](Nc1ncnc2[nH]cnc12)c1nc2cccc(F)c2c(=O)n1-c1ccccc1 [CAL-101]
Assay: Viability of human cancer cell lines after 72 h of drug (GDSC screen)
Experimental: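 Human cancer cell lines in 384-well plates, medium with 10% serum, drug for 72 h over a 256-fold dose range (nine 2-fold or five 4-fold steps up to the top dose). Adherent lines were fixed and stained with the nucleic acid dye Syto60, suspension lines read with resazurin; signal relative to control wells, capped at 0 and 100%. One two-parameter sigmoid per drug and line, fitted in a mixed model over all curves with the slope shared within a line.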

| Cell Line | AUC | IC50 [µM] |
| --- | --- | --- |
| SW13 (adrenal gland, adherent, top dose 20 µM) | 0.988 | > 20 |
| SW48 (large intestine, adherent, top dose 20 µM) | 0.974 | > 20 |
| SW156 (kidney, adherent, top dose 20 µM) | 0.898 | > 20 |
| SW620 (large intestine, adherent, top dose 20 µM) | 0.962 | > 20 |
| SW626 (ovary, adherent, top dose 20 µM) | 0.87 | > 20 |
| SW684 (fibrosarcoma, adherent, top dose 20 µM) | 0.983 | > 20 |
| SW756 (cervix, adherent, top dose 20 µM) | 0.983 | > 20 |
| SW780 (bladder, adherent, top dose 20 µM) | 0.985 | > 20 |
| SW837 (large intestine, adherent, top dose 20 µM) | 0.959 | > 20 |
| SW872 (soft tissue, adherent, top dose 20 µM) | 0.978 | > 20 |
| SW900 (lung squamous cell carcinoma, adherent, top dose 20 µM) | 0.959 | > 20 |
| SW948 (large intestine, adherent, top dose 20 µM) | 0.968 | > 20 |
| SW954 (urogenital system, adherent, top dose 20 µM) | 0.869 | 18.7 |
| SW962 (urogenital system, adherent, top dose 20 µM) | 0.945 | > 20 |
| SW982 (soft tissue, adherent, top dose 20 µM) | 0.984 | > 20 |
| SW1088 (glioma, adherent, top dose 20 µM) | 0.953 | > 20 |
| SW1116 (large intestine, adherent, top dose 20 µM) | 0.983 | > 20 |
| SW1271 (small cell lung carcinoma, adherent, top dose 20 µM) | 0.958 | > 20 |
| SW1417 (large intestine, adherent, top dose 20 µM) | 0.972 | > 20 |
| SW1463 (large intestine, adherent, top dose 20 µM) | 0.6 | 2.85 |
| SW1573 (lung adenocarcinoma, adherent, top dose 20 µM) | 0.964 | > 20 |
| SW1710 (bladder, adherent, top dose 20 µM) | 0.879 | > 20 |

| Cell Line | AUC | IC50 [µM] |
| --- | --- | --- |
| SW1783 (glioma, adherent, top dose 20 µM) | 0.947 | > 20 |
| SW1990 (pancreas, adherent, top dose 20 µM) | 0.982 | > 20 |
| Saos-2 (osteosarcoma, adherent, top dose 20 µM) | 0.971 | > 20 |
| SiHa (cervix, adherent, top dose 20 µM) | 0.986 | > 20 |
| T47D (breast, adherent, top dose 20 µM) | 0.765 | 11.5 |
| T84 (large intestine, adherent, top dose 20 µM) | 0.974 | > 20 |
| T98G (glioma, adherent, top dose 20 µM) | 0.962 | > 20 |
| T-24 (bladder, adherent, top dose 20 µM) | 0.957 | > 20 |
| T-T (oesophagus, adherent, top dose 20 µM) | 0.986 | > 20 |
| TALL-1 (T-cell lymphoblastic leukaemia, suspension, top dose 20 µM) | 0.987 | > 20 |
| TC-71 (Ewing sarcoma, adherent, top dose 20 µM) | 0.986 | > 20 |
| TCCSUP (bladder, adherent, top dose 20 µM) | 0.98 | > 20 |
| TE-1 (oesophagus, adherent, top dose 20 µM) | 0.972 | > 20 |
| TE-4 (oesophagus, adherent, top dose 20 µM) | 0.98 | > 20 |
| TE-5 (oesophagus, adherent, top dose 20 µM) | 0.973 | > 20 |
| TE-6 (oesophagus, adherent, top dose 20 µM) | 0.963 | > 20 |
| TE-8 (oesophagus, adherent, top dose 20 µM) | 0.96 | > 20 |
| TE-9 (oesophagus, adherent, top dose 20 µM) | 0.984 | > 20 |
| TE-10 (oesophagus, adherent, top dose 20 µM) | 0.972 | > 20 |
| TE-11 (oesophagus, adherent, top dose 20 µM) | 0.986 | > 20 |
| TE-12 (oesophagus, suspension, top dose 20 µM) | 0.935 | > 20 |
| TE-15 (oesophagus, suspension, top dose 20 µM) | 0.933 | > 20 |

| Cell Line | AUC | IC50 [µM] |
| --- | --- | --- |
| TE-441-T (rhabdomyosarcoma, adherent, top dose 20 µM) | 0.972 | > 20 |
| TGBC1TKB (biliary tract, adherent, top dose 20 µM) | 0.988 | > 20 |
| TGBC11TKB (stomach, adherent, top dose 20 µM) | 0.987 | > 20 |
| TGBC24TKB (biliary tract, adherent, top dose 20 µM) | 0.98 | > 20 |
| TGW (neuroblastoma, adherent, top dose 20 µM) | 0.959 | > 20 |
| TK10 (kidney, adherent, top dose 20 µM) | 0.923 | > 20 |
| TK (B-cell lymphoma, suspension, top dose 20 µM) | 0.93 | > 20 |
| TMK-1 (stomach, adherent, top dose 20 µM) | 0.984 | > 20 |
| TOV-21G (ovary, adherent, top dose 20 µM) | 0.803 | 11 |
| TOV-112D (ovary, adherent, top dose 20 µM) | 0.972 | > 20 |
| TT2609-C02 (thyroid, adherent, top dose 20 µM) | 0.97 | > 20 |
| TT (thyroid, adherent, top dose 20 µM) | 0.975 | > 20 |
| TUR (B-cell lymphoma, suspension, top dose 20 µM) | 0.917 | > 20 |
| TYK-nu (ovary, adherent, top dose 20 µM) | 0.984 | > 20 |
| U031 (kidney, adherent, top dose 20 µM) | 0.905 | > 20 |
| U251 (glioma, adherent, top dose 20 µM) | 0.925 | > 20 |
| U-2-OS (osteosarcoma, adherent, top dose 20 µM) | 0.972 | > 20 |
| U-87-MG (glioma, adherent, top dose 20 µM) | 0.93 | > 20 |
| U-118-MG (glioma, adherent, top dose 20 µM) | 0.982 | > 20 |
| U-698-M (B-cell leukaemia, suspension, top dose 20 µM) | 0.987 | > 20 |
| UACC-62 (melanoma, adherent, top dose 20 µM) | 0.973 | > 20 |
| UACC-257 (melanoma, adherent, top dose 20 µM) | 0.941 | > 20 |

| Cell Line | AUC | IC50 [µM] |
| --- | --- | --- |
| UACC-812 (breast, adherent, top dose 20 µM) | 0.958 | > 20 |
| UACC-893 (breast, adherent, top dose 20 µM) | 0.983 | > 20 |
| UM-UC-3 (bladder, adherent, top dose 20 µM) | 0.908 | > 20 |
| UMC-11 (lung carcinoid, adherent, top dose 20 µM) | 0.986 | > 20 |
| UWB1.289 (ovary, adherent, top dose 20 µM) | 0.949 | > 20 |
| VA-ES-BJ (soft tissue, adherent, top dose 20 µM) | 0.982 | > 20 |
| VAL (B-cell lymphoma, suspension, top dose 20 µM) | 0.858 | 16.6 |
| VCaP (prostate, adherent, top dose 20 µM) | 0.954 | > 20 |
| VM-CUB-1 (bladder, adherent, top dose 20 µM) | 0.988 | > 20 |
| VMRC-MELG (melanoma, adherent, top dose 20 µM) | 0.985 | > 20 |
| VMRC-RCW (kidney, adherent, top dose 20 µM) | 0.958 | > 20 |
| VMRC-RCZ (kidney, adherent, top dose 20 µM) | 0.864 | > 20 |
| WIL2-NS (lymphoid neoplasm, suspension, top dose 20 µM) | 0.74 | 5.15 |
| WM35 (melanoma, adherent, top dose 20 µM) | 0.936 | > 20 |
| WM278 (melanoma, adherent, top dose 20 µM) | 0.952 | > 20 |
| WM793B (melanoma, adherent, top dose 20 µM) | 0.94 | > 20 |
| WM1552C (melanoma, adherent, top dose 20 µM) | 0.918 | > 20 |
| WM-115 (melanoma, adherent, top dose 20 µM) | 0.836 | 17.7 |
| WSU-DLCL2 (B-cell lymphoma, suspension, top dose 20 µM) | 0.916 | > 20 |
